According to PubChem BioAssay AID540317 (National Center for Advancing Translational Sciences (NCATS), 2011):
Among all 390,000 compounds or so, about 2,200 (0.56%) were called active. The inconclusive results got no clear call from the source; some entries with a clear call stand among them for comparison. Calls come from the whole dose curve; as a rule, active = well fitted inhibition curve with a large enough effect; inconclusive = small, poorly fitted or top-dose-only effect; inactive = no such curve, though single readings can be large or run the other way. Potencies beside an inconclusive call are fits to weak or partial responses and may not hold up.

Target: Chromobox protein homolog 1 (Homo sapiens) (UniProt P83916)
Test: HTS for Inhibitors of HP1-beta Chromodomain Interactions with Methylated Histone Tails; note: nearly all actives have a fitted effect of over 70% in size
Conditions: AlphaScreen HP1-beta / biotin-H3K9me3 peptide binding; series mostly up to 114 µM; activity change, negative = inhibition: at the top concentration
Method in brief: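 HP1-beta protein (50 nM final) preincubated 30 min at room temperature with biotinylated H3(1-18)K9me3 peptide (50 nM) in PBS pH 7.4, 0.01% Tween-20, then compound added for 30 min. AlphaScreen streptavidin donor/nickel chelate acceptor beads (10 ug/mL final), 30 min dark, luminescence read.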
Potency is the fitted concentration of half-maximal effect; tags give direction and shape of the fitted curve.

Chain of UniProt P83916 (P83916 whole entry, looked up): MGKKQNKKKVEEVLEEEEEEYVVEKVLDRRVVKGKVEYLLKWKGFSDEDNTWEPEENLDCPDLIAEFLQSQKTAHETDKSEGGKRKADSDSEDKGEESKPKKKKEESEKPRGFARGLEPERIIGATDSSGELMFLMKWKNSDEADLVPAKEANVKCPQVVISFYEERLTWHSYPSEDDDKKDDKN

SMILES	Potency	activity change, negative = inhibition
Cc1ccccc1CN1CCN(C(=O)c2ccc(F)cc2)CC1	inconclusive: 14.1 µM [inhibitor, partial curve, poor fit]	–
NS(=O)(=O)c1ccc(NC(=O)COC(=O)CSCc2ccc(F)cc2)cc1	–	inactive: 59.5%
O=C(c1ccccc1)N1CCc2[nH]nc(-c3ccccc3)c2C1	–	inactive: 13.9% [at 57 µM]
O=C(O)c1ccccc1SC1CC(=O)N(c2cccc3ccccc23)C1=O (centres undefined)	inconclusive: 70.8 µM [inhibitor, partial curve]	–
COc1ccc(/C=C/C(=O)Nc2ccc3nc4c(c(Nc5ccc(OC)c(OC)c5)c3c2)CCCC4)cc1	inconclusive: 12.6 µM [inhibitor, full curve]	–
COc1cccc(/C=C/C2=CC(C)(C)NC(=S)N2)c1	inconclusive: 70.8 µM [inhibitor, partial curve]	–
COc1ccc(Nc2nc(NCc3ccco3)nc(N3CCOCC3)n2)cc1	inconclusive: 50.1 µM [inhibitor, partial curve]	–
CCC(=O)N1CCN(c2ccccc2NC(=S)NC(=O)c2ccco2)CC1	inconclusive: 22.4 µM [inhibitor, full curve]	–
Cc1ccc(-c2csc3ncnc(Nc4ccc(N5CCOCC5)cc4)c23)cc1	inconclusive: 28.2 µM [inhibitor, single point]	–
O=C(O)CSC(NC(=O)c1cccnc1)(C(F)(F)F)C(F)(F)F	inconclusive: 89.1 µM [inhibitor, single point]	–
O=C1N=c2ccc(Br)cc2=C1c1sc(=S)n(NS(=O)(=O)c2ccccc2)c1O	inconclusive: 25.1 µM [inhibitor, partial curve]	–
CC(NC(=O)C1CCC1)c1ccc2c(c1)OCO2 (centres undefined)	–	inactive: 23.8%
Cc1ccc(C(=O)NCc2ccccc2)cc1NC(=O)c1nsc2ccccc12	–	inactive: 20.5% [at 57 µM]
CCOc1ccc2cc(C3CC(c4ccco4)=NN3S(C)(=O)=O)c(=O)[nH]c2c1 (centres undefined)	inconclusive: 31.6 µM [inhibitor, full curve]	–
O=[N+]([O-])c1ccc(Cl)cc1Sc1nc2ccccc2o1	active: 12.6 µM	–
N#CCCN1CCN(C(=S)c2ccc(-c3ccc(Cl)cc3)o2)CC1	inconclusive: 25.1 µM [inhibitor, full curve]	–
Cc1cc(/C=N/NC(=O)c2c(Br)cnn2C)c(C)n1-c1cccc(Br)c1	inconclusive: 50.1 µM [inhibitor, partial curve]	–
CC1CCN(CCCCOc2ccc(F)cc2)CC1	inconclusive: 56.2 µM [inhibitor, single point]	–
CCCCN1C(=O)C(=Nc2cccc3cnccc23)c2ccccc21	inconclusive: 70.8 µM [inhibitor, partial curve]	–
Cc1ccc(Nc2c(-c3ccc(C)o3)nc3cccc(C)n23)cc1	inconclusive: 44.7 µM [inhibitor, partial curve]	–
CCC1CCCCN1C(=O)CCS(=O)(=O)c1cc2c(cc1C)NC(=O)CO2 (centres undefined)	inconclusive: 28.2 µM [inhibitor, partial curve]	–
O=c1c2oc3ccccc3c2n(Cc2ccc(Cl)cc2)c(=O)n1Cc1ccccc1	–	inactive: 43.6%

SMILES	Potency	activity change, negative = inhibition
O=C(c1ccc(CS(=O)Cc2cccc(Cl)c2)o1)N1CCN(C2CCCCC2)CC1 (centres undefined)	–	inactive: 27.9%
CCN(CC)CCOc1c(Br)ccc2c1sc1nc3n(c(=O)c12)CCC3	–	inactive: 23.1%
O=C(Nc1nc(-c2ccccn2)cs1)C12CC3CC(CC(O)(C3)C1)C2	inconclusive: 17.8 µM [inhibitor, full curve]	–
CCc1cccc(OCCN2CCCC2)c1	inconclusive: 70.8 µM [inhibitor, single point]	–
Cc1ccc(NC(=O)CN(C)C2CCCCC2)cc1Cl	inconclusive: 14.1 µM [inhibitor, full curve, poor fit]	–
COc1cc(CN2CCCC(C(=O)N3CCc4ccccc4C3)C2)cc(OC)c1OC (centres undefined)	inconclusive: 20 µM [inhibitor, full curve]	–
CCSc1cc(C2C(C(=O)OC)=C(C)NC3=C2C(=O)CCC3)c(C)o1 (centres undefined)	inconclusive: 89.1 µM [inhibitor, single point]	–
OC(c1cc(-c2cccc(Cl)c2)nc2ccccc12)C1CCCCN1 (centres undefined)	inconclusive: 89.1 µM [inhibitor, partial curve, poor fit]	–
NS(=O)(=O)c1ccc(NC(=S)NCc2ccco2)cc1	inconclusive: 11.2 µM [inhibitor, full curve]	–
CN(C)CCCN(C(=O)c1ccc(S(=O)(=O)N2CCc3ccccc32)cc1)c1nc2ccc(F)cc2s1	inconclusive: 28.2 µM [inhibitor, full curve]	–
N#Cc1ccc(OCCN2CCc3ccccc3C2)cc1	inconclusive: 56.2 µM [inhibitor, partial curve, poor fit]	–
C/C=C/c1ccc(O)c(OC)c1	inconclusive: 79.4 µM [inhibitor, partial curve, poor fit]	–
COc1ccc(NC(=O)CSc2nc(-c3ccco3)nc3cc(=O)[nH]n23)cc1Cl	–	inactive: -3%
COc1ccc(Cl)cc1NC(=O)C(C)N1CCN(C/C=C/c2ccccc2)CC1 (centres undefined)	active: 12.6 µM	–
Cc1ccc(CNc2nccn(-c3cc(C)cc(C)c3)c2=O)cc1	inconclusive: 44.7 µM [inhibitor, partial curve]	–
Cc1ccc(/C=C2\C(=O)Nc3ccccc32)o1	active: 44.7 µM	–
COc1ccc(C(c2nnnn2Cc2ccc(F)cc2)N2CCN(c3ccc(OC)cc3)CC2)cc1 (centres undefined)	inconclusive: 22.4 µM [inhibitor, full curve]	–
O=C1c2ccccc2C2=Nc3ccccc3SC(c3ccccc3F)C12 (centres undefined)	inconclusive: 25.1 µM [inhibitor, full curve]	–
CCCCCCNc1nc(-c2ccc(OC)cc2)c(CCC(=O)O)s1	–	inactive: -2.45%
O=C(O)/C=C\C(=O)Nc1ccc(N2CCN(c3ccc(Cl)c(Cl)c3)CC2)cc1	inconclusive: 44.7 µM [inhibitor, partial curve]	–
COCCNC(=S)N(CCc1c(C)[nH]c2ccc(OC)cc12)Cc1ccco1	inconclusive: 70.8 µM [inhibitor, partial curve]	–
Nc1ccc2c(c1Br)Cc1ccccc1-2	inconclusive: 56.2 µM [inhibitor, single point]	–
